These results are taken from PubChem BioAssay AID488969 (Vanderbilt High Throughput Screening Facility, 2010).

SMILES strings stand for the structures. Over roughly 110,000 compounds, “z-score” has its median near -0.1; the highest 2% begin near 2. This is one part of the list. The source made the active and inactive calls.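 How the source made its calls: active means z-score in the third read window above 3 or below -3; inactive means the rest.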

The experiment deals with Metabotropic glutamate receptor 8 (Rattus norvegicus) (UniProt P70579). The experiment can be described thus: mGluR8 Gi/Go-coupled signaling modulation – cell-based, rat, thallium flux, HTS, primary screen (AID 488969). Conditions: HEK293 rat mGluR8, GIRK (G protein-gated inwardly rectifying potassium channel) thallium flux, FluoZin2; at 10 µM; stronger effect = higher value; submaximal glutamate (EC20) added with thallium.
Chain of UniProt P70579 (P70579 whole entry, looked up): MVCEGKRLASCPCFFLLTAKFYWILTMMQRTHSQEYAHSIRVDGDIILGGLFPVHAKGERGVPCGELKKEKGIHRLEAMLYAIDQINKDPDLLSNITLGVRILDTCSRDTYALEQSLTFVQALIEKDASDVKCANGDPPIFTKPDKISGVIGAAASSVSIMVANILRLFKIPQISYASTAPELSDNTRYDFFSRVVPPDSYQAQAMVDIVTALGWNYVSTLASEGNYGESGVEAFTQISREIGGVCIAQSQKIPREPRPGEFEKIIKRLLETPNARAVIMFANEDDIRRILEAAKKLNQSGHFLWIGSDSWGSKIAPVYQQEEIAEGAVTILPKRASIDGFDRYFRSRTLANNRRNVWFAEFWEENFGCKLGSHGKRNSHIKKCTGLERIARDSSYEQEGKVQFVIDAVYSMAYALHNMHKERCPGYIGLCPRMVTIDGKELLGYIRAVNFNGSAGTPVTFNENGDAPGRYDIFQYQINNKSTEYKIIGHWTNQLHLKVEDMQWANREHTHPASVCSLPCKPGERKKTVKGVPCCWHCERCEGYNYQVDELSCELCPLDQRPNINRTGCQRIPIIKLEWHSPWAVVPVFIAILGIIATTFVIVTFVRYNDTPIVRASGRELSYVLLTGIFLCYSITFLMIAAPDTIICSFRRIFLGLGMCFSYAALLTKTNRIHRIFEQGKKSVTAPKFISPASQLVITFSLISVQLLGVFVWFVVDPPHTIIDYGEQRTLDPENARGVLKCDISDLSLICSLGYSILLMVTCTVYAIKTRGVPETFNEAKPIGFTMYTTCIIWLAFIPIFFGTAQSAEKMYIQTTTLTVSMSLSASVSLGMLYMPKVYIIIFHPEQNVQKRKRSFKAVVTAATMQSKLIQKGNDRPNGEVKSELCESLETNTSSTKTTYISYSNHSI
`CC(C)Oc1ccc(C(=O)NCc2cccs2)cc1` had a z-score of 0.0965.
For `O=C(CSc1nnc(SCc2ccc(Cl)cc2)s1)N1CCN(C(=O)c2ccco2)CC1`, the z-score is -0.43.
Then `NC(=O)C1CCN(S(=O)(=O)c2cccc(S(=O)(=O)N3CCCCC3)c2)CC1`, with 0.0693.
For `O=S(=O)(N/N=C\C=C\c1ccccc1)c1ccccc1`, the z-score is -0.137.
Then `CCOc1ccc2ncc(S(=O)(=O)c3ccccc3)c(N3CCN(c4ccc(OC)cc4)CC3)c2c1`, with -0.351; and `COc1ccc(-n2c(SCC(=O)NC3CCCCC3)nc3ccsc3c2=O)cc1`, with -0.145; and `Clc1ccc(OCCSCc2nc3ccccc3[nH]2)cc1`, with -0.536.
Then `COc1ccc2nc(N3C(=O)/C(=C/c4ccccc4)NC3=S)sc2c1`, with active: 11.9; and `Cc1ccccc1CSc1nnc(NC(=O)Cc2cccs2)s1`, with 0.0186.
Next, `COc1ccc(C2C(C(=O)N3CCCCC3)CCC(=O)N2c2cc(OC)c(OC)c(OC)c2)cc1` (stereo not drawn): 0.48.
For the compound `COc1cccc(C(=O)N/N=C/c2ccc(OC3CSC3)cc2)c1`, the z-score is -0.141.
For the compound `Cc1ccccc1Oc1ccc(S(=O)(=O)NCCC(=O)O)cc1`, the z-score amounted to 0.0137.
Regarding `Nc1cc(-c2ccccc2)nn1S(=O)(=O)c1ccc(F)cc1`, the z-score was -0.299.
Then `Cc1ccc(C2OCC3(CO2)COC(c2ccc(C)cc2)OC3)cc1` (stereo not drawn), with -0.306.
In turn, `COc1cccc(CN(C)CC(=O)NNC(=O)c2ccc(Cl)cc2)c1` came in with a z-score of -0.252.
Next, `Cc1cccc(NC(=O)CCS(=O)(=O)c2cccc3nsnc23)c1C`: 0.158.
The compound `O=C(CC1COc2ccccc2O1)Nc1ccccn1` (stereo not drawn) displayed a z-score of -0.348.
`Cc1cc(Nc2ccccc2)nc(-c2ccccc2O)n1` gave a z-score of -0.249.
For the compound `CCc1ccc(NCCC(=O)c2ccc(Br)cc2)cc1`, the z-score is -0.166.
The compound `CCN1CCN(C(=S)c2ccc(Br)cc2)CC1` gave a z-score of -0.0963.
With `CCOC(=O)c1c(C)[nH]c(C(=O)OCCOc2ccc(Cl)cc2)c1C`, the z-score was -0.198.
Next, `COc1cccc(OCc2nnc(SCC(=O)OC3CCCCC3)n2C)c1`: -0.824; `O=C(C1CCCN(Cc2ccccc2)C1)N1CCCCC1` (stereo not drawn): 0.122.
Next, `CCOC(=O)C1=C(O)/C(=C/c2cc(OC)c(OC)c(OC)c2)SC1=Nc1ccc(OC)cc1`: -0.337.
`COc1ccc(OC)c(NC(=O)C(=O)N/N=C/c2ccccc2[N+](=O)[O-])c1` yielded a z-score of -0.219.
Next, `Cc1nn(-c2ccccc2)c(Cl)c1C(=O)N(C)c1nc(-c2ccc(F)cc2)cs1`: -0.426; `Cc1ccc(CN=c2c([N+](=O)[O-])nn(-c3ccc4c(c3)OCCO4)n2O)cc1`: -0.236; `O=C(O)CCc1ccc(-c2ccccc2)n1CC(=O)O`: 1.44.
With `CCOC(=O)CN1C=C(c2ccc3ccccc3n2)C(C[N+](=O)[O-])c2ccccc21` (stereo not drawn), the z-score was found to be 0.302.
Next, `Cc1cccc(NC(=O)c2cc(N3CCOCC3)nc3ccccc23)c1`: 0.0144; `CCOC(=O)COc1c(OC)cc(Cl)cc1C1Nc2ccccc2C(=O)N1c1cccc(C)c1` (stereo not drawn): 0.18; `CCn1c(SCc2ccc(C)cc2)nnc1C1CCN(S(=O)(=O)c2ccc(OC)cc2)CC1`: 0.387.
For the compound `CCOC(=O)c1c(C)n(C)c2ccc(OC(=O)c3ccc([N+](=O)[O-])cc3)cc12`, the z-score was -0.168.
Then `COc1ccc(OCCC(=O)OCC(=O)Nc2ccc(Br)cc2)cc1`, with 0.337; and `O=C(c1ccc(Br)o1)N1CCN(c2ccc3nnc(-c4ccccc4)n3n2)CC1`, with -1.78.
In turn, `CC(=O)Nc1nc(SCc2ccc(Cl)cc2Cl)n[nH]1` returned a z-score of -0.0823.
In turn, `COc1ccc(C)cc1NC(=O)CSc1nnc(-c2ccccn2)n1Cc1ccco1` gave a z-score of 0.359.
Consider `COc1ccc(CCn2c(C)cc(C(=O)CSc3nnnn3C)c2C)cc1`, for which the z-score was -0.317.
Next, `Cc1ccccc1Nc1nnc(SCC(=O)N(C)C2CCS(=O)(=O)C2)s1` (stereo not drawn): -0.0982; `O=C(Nc1ccc(S(=O)(=O)Nc2ccccc2)cc1)C1COc2ccccc2O1` (stereo not drawn): -0.811; `O=C(Cc1ncc(C(F)(F)F)cc1Cl)N1CCN(c2ccc(F)cc2)CC1`: -0.125.
Then `CCc1cccc(CC)c1NC(=O)C(NS(=O)(=O)c1cccs1)c1ccccc1` (stereo not drawn), with -0.321.
Next, `O=C(COC(=O)c1cccc(S(=O)(=O)N2CCOCC2)c1)Nc1nc(-c2ccccc2Cl)cs1`: -0.143; `O=C(Nc1cccn(Cc2ccc(F)cc2)c1=O)NC1CCCCC1`: -0.23.
In the case of `Cc1c(C(=O)O)sc2ncn(C)c(=O)c12`, the z-score was determined as 0.364.
`COc1cc(OC)cc(C(=O)NCCCN2CCN(CCCNC(=O)c3cc(OC)cc(OC)c3)CC2)c1` had a z-score of -0.137.
For the compound `COC(=O)CNC(=O)COC(=O)c1cc(F)c(F)cc1Cl`, the z-score was -0.284.
Then `CCOc1ccc(OCC)c(NC(=O)c2[nH]c(C)c(C(C)=O)c2C)c1`, with 0.862.
Then `CCOC(=O)CSc1cc(C)nc(N)n1`, with -0.197; and `CCCCNC(=O)CSc1nnc(-c2c[nH]c3ccccc23)n1CC1CCCO1` (stereo not drawn), with -0.272; and `COc1ccc(OC)c2sc(NC(=O)C3=COCCO3)nc12`, with -0.168.
Next, `O=C(NCc1ccco1)[C@@H]1CSC2c3ccccc3C(=O)N21` (stereo partly drawn): 0.102; `Cc1ccc(-c2nn(CC(=O)Nc3ccc4c(c3)nc3n4CCOC3)c(=O)c3ccccc23)cc1`: -0.236; `Cc1nn(-c2ccccc2)c(OC(=O)c2cccs2)c1S(=O)(=O)c1ccc([N+](=O)[O-])cc1`: 0.288.
As for `CCC12CN(C(=O)c3ccc(C)cc3)CC(CC)(CN(C(=O)c3ccc(C)cc3)C1)C2=O`, the z-score is -0.191.
As to `O=C1CCCC2=C1C(c1ccncc1)Nc1ccccc1N2` (stereo not drawn), the z-score was -0.194.
`CC(Oc1ccccc1F)C(=O)NCCN1CCCCC1` (stereo not drawn) registered a z-score of 0.182.
As to `Cc1ccc(-c2csc3nnc(SCc4csc(C)n4)n23)cc1`, the z-score is -0.489.
Compound `Nc1cc(-c2cccc(Br)c2)nn1Cc1ccccc1` gave a z-score of 0.00672.
With `Cn1c(=O)c2c(nc(Oc3ccc4ccccc4c3)n2C)n(C)c1=O`, the z-score is 0.32.
Then `N#CCCN(CCC#N)C(=O)c1ccc2c(c1)OCO2`, with 0.193; and `CC1=CC(=O)N(c2cccc(C(F)(F)F)c2)C1c1ccc(Cl)cc1` (stereo not drawn), with -0.739.
Consider `COc1ccc(CCNC(=O)CSc2nc3ccccc3o2)cc1`, for which the z-score was -0.405.
Then `Cc1sc2nc(C(C)C)nc(SCC(=O)N3CCN(C(=O)c4ccco4)CC3)c2c1C`, with 0.591; and `O=C1NC(=O)C2(COC(c3cccnc3)OC2)S1` (stereo not drawn), with 2.49; and `CC(C)c1nnc(NC(=O)CCC(=O)N2CCN(c3ccccn3)CC2)s1`, with 0.00447.
Then `Cc1cc(C)cc(NC(=S)/N=C(\N)Nc2nc(C)c3ccccc3n2)c1`, with -0.00288; and `CC(Cl)C(=O)NNc1cccc(Cl)n1` (stereo not drawn), with -0.0997; and `COc1ccccc1CNC(=O)c1ccccc1NS(C)(=O)=O`, with 0.327.
Next, `COc1ccc(Cc2nnc(SCC(=O)NC3CCCCC3)n2C)cc1`: -0.16.
Take `c1ccc(CN2CCN(c3nc4ccccc4n4cnnc34)CC2)cc1`: the z-score was -0.0719.
Take `CCCCCn1c(C(Cc2ccccc2)NC(C)=O)nc2ccccc21` (stereo not drawn): the z-score is -1.11.
Then `Cc1cc(C)cc(N2CCN(C(=O)N3CCOCC3)CC2)c1`, with 0.426.
In turn, `Cc1ccc2nc(SCc3ccccc3)c(C=O)c(=O)n2c1` came in with a z-score of -0.181.
Next, `CCC(C)N1CC(O)=C(c2nc3ccccc3[nH]2)C1=N` (stereo not drawn): 0.185; `Nc1nnc(SCc2ccc(F)cc2)n1-c1ccccc1`: -0.0735.
Then `Cc1csc(NC(=O)C2CCCC2)n1`, with 0.0786; and `CC(C)CCNC(=O)COC(=O)c1ccc(Br)o1`, with -0.14; and `COC(=O)c1sccc1NC(=O)CSc1ccccc1NS(=O)(=O)c1ccc(Cl)cc1`, with active: 3.6.
Then `CCOc1cc(/C=C2\N=C(C)OC2=O)cc(Br)c1OCCc1ccccc1`, with -0.152; and `CC(CN1CCN(C)CC1)OC(=O)c1ccc(Cl)cc1Cl` (stereo not drawn), with 0.335.
As for `C=CCCCCCCCCc1nc(=S)[nH][nH]1`, the z-score is active: 9.76.
Next, `O=c1c(Cl)c(NCc2ccc(F)cc2)cnn1C12CC3CC(CC(C3)C1)C2`: 0.25; `OCCN(CCO)c1ccc(C(c2ccccc2Cl)c2ccc(N(CCO)CCO)cc2Cl)c(Cl)c1`: -0.563.
Turning to `COC(=O)/C=C1/S/C(=N/NC(=O)c2ccccc2)NC1=O`, the z-score was -0.236.
Next, `O=C(CCCN1C(=O)c2ccccc2C1=O)Nc1sc2c(c1C(=O)NCc1ccco1)CCC2`: -0.742.
Then `O=c1c2ccccc2cnn1-c1ccc(Br)cc1`, with -0.172.
Next, `Cc1ccsc1/C=N/N1CCN(C2c3ccccc3-c3ccccc32)CC1`: 0.148; `CCOc1ccccc1C(=O)N(C)Cc1cc2cc(OC)ccc2[nH]c1=O`: -0.0838.
As for `O=C(N/N=C/c1cccc(O)c1)c1ccc(COc2ccc3c(c2)CCC3)o1`, the z-score is -0.108.
`CCOC(=O)c1cccc(NC(=O)c2cnc3ccccc3n2)c1` had a z-score of -0.0643.
In turn, `COc1ccc2c(COC(=O)CC3Sc4ccccc4NC3=O)cc(=O)oc2c1` (stereo not drawn) yielded a z-score of 0.104.
Next, `CN(C(=O)CSc1ccccc1C(=O)O)C1CCCCC1`: -0.392; `COc1ccc(OC)c(-c2cc(C(=O)Nc3c(C)n(C)n(-c4ccccc4)c3=O)no2)c1`: -0.0663; `CCOC(=O)c1ccc2c(c1)N(CC(=O)N1CCCCC1)C(=O)C(C)(C)O2`: -0.49.
Then `Cc1cc(C)n(-c2nc3c(c(=O)n(C)c(=O)n3C)n2CC(O)COc2ccccc2C)n1` (stereo not drawn), with -0.0267.
Compound `COc1cc2[nH]c(=O)n(CCCCCC(=O)N3CCN(c4ccccn4)CC3)c(=O)c2cc1OC` gave a z-score of -1.02.
Then `CC(=O)c1c(C)[nH]c(C(=O)N2CCN(c3cc(Cl)ccc3C)CC2)c1C`, with 0.12.
For the compound `Cn1c(=O)cc(SCC(=O)N2CCN(c3ccccn3)CC2)c2ccccc21`, the z-score amounted to 0.188.
Then `COc1cc(/C=N/NC(=O)/C(=C\c2ccc3c(c2)OCO3)NC(=O)c2ccccc2)ccc1O`, with -0.292.
With `O=C(CSc1nccc(=O)[nH]1)Nc1ccc(F)c(Cl)c1`, the z-score was -0.262.
Next, `Cc1ccc([N+](=O)[O-])cc1/C=N/Nc1nnnn1-c1ccccc1`: 0.0259; `N#C/C(=C\c1ccc(F)c(F)c1)C(=O)NC1CCCCC1`: -0.686; `CC(=O)c1ccccc1OCCCN1CCCCC1`: -0.246.
Then `Cc1ccc(-n2c(N)c(C(=O)NCc3cccnc3)sc2=S)cc1`, with 0.285.
The compound `CCOC(=O)c1c(C)[nH]c(C(=O)COC(=O)c2ccc(F)c(S(=O)(=O)N3CCOCC3)c2)c1C` gave a z-score of 0.141.
`CCOC(=O)C1C(=O)C=C(/C=C/c2ccc(N(C)C)cc2)CC1c1ccccc1` (stereo not drawn) showed a z-score of 0.242.
Next, `CCCCS(=O)(=O)NC1=NCN(Cc2ccco2)CN1`: 0.156.
